# From the supplement of paper PMC4604168 (melanoma cell lines)
# The list shows a part of the results. Many values rest on one well or one pass, so single values are uncertain.
# Legend:
# Test in all cases: cell count relative to DMSO control; melanoma cells; higher = more viable cells
# Conditions in all cases: library dose: standard library concentration; 72 h
# 501Mel = test system: 501Mel
# A101D = test system: A101D
# A2058 = test system: A2058
# A375 = test system: A375
# 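Further: cells treated in 1,536-well plates, then fixed and DAPI-stained, with nuclei counted from automated high-throughput microscope images.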
Structure (SMILES),cell count (501Mel) [%],cell count (A101D) [%],cell count (A2058) [%],cell count (A375) [%]
"COc1cc([C@@H]2c3cc4c(cc3[C@@H](O[C@@H]3O[C@@H]5CO[C@@H](C)O[C@H]5[C@H](O)[C@H]3O)[C@H]3COC(=O)[C@H]23)OCO4)cc(OC)c1O [etoposide] + Cn1cc(/C=C2\C(=O)Nc3cccnc32)c2ccccc21 [GW441756] (first compound 0.1 µM, partner dose 2 µM)",75.7,94.2,93.1,91.2
"Cn1cnc2c(F)c(Nc3ccc(Br)cc3Cl)c(C(=O)NOCCO)cc21 [selumetinib] + Oc1nc(-c2ccc(C(F)(F)F)cc2)nc2c1CSCC2 [XAV939] (first compound 0.075 µM, partner dose 10 µM)",37.4,71.3,68.8,76.5
"C[C@]1(O)C[C@@H](c2nc(-c3ccc4ccc(-c5ccccc5)nc4c3)c3c(N)nccn32)C1 + CCN(CC)CCCCNc1ncc2cc(-c3cc(OC)cc(OC)c3)c(NC(=O)NC(C)(C)C)nc2n1 [PD173074] (first compound 2 µM, partner dose 0.5 µM)",77.8,105,108,82.8
"COc1cc([C@@H]2c3cc4c(cc3[C@@H](O[C@@H]3O[C@@H]5CO[C@@H](C)O[C@H]5[C@H](O)[C@H]3O)[C@H]3COC(=O)[C@H]23)OCO4)cc(OC)c1O [etoposide] + CCN(CC)CCCCNc1ncc2cc(-c3cc(OC)cc(OC)c3)c(NC(=O)NC(C)(C)C)nc2n1 [PD173074] (first compound 0.1 µM, partner dose 0.5 µM)",78.9,106,75.5,78.4
"CCN(CC)CCNC(=O)c1c(C)[nH]c(/C=C2\C(=O)Nc3ccc(F)cc32)c1C [sunitinib] + Oc1nc(-c2ccc(C(F)(F)F)cc2)nc2c1CSCC2 [XAV939] (first compound 2 µM, partner dose 10 µM)",29.7,64.1,61.5,106
"Cn1cnc2c(F)c(Nc3ccc(Br)cc3Cl)c(C(=O)NOCCO)cc21 [selumetinib] + O=c1cc(-c2cccc3c2Sc2ccccc2S3)oc(N2CCOCC2)c1 [KU55933] (first compound 0.075 µM, partner dose 5 µM)",39.6,60.6,94.7,92.4
"Cn1cnc2c(F)c(Nc3ccc(Br)cc3Cl)c(C(=O)NOCCO)cc21 [selumetinib] + COc1ccc(COc2ccc(Cc3cnc(N)nc3N)cc2OC)cc1 [GW2580] (first compound 0.075 µM, partner dose 5 µM)",45.7,95.5,112,82.8
"COc1cc([C@@H]2c3cc4c(cc3[C@@H](O[C@@H]3O[C@@H]5CO[C@@H](C)O[C@H]5[C@H](O)[C@H]3O)[C@H]3COC(=O)[C@H]23)OCO4)cc(OC)c1O [etoposide] + COc1ccc(-c2ccc3c(N4CCOCC4)nc(N4C[C@@H](C)O[C@@H](C)C4)nc3n2)cc1CO [KU0063794] (first compound 0.1 µM, partner dose 0.1 µM)",81.9,74,84.9,71.7
"CCN(CC)CCNC(=O)c1c(C)[nH]c(/C=C2\C(=O)Nc3ccc(F)cc32)c1C [sunitinib] + O=S(=O)(c1ccccc1)N(CC(F)(F)F)c1ccc(C(O)(C(F)(F)F)C(F)(F)F)cc1 [T0901317] (first compound 2 µM, partner dose 7 µM)",22,71.5,78,106
"Cn1cnc2c(F)c(Nc3ccc(Br)cc3Cl)c(C(=O)NOCCO)cc21 [selumetinib] + COc1ccc2c(c1)CCC1C2CCC2(C)C(NCCCCCCN3C(=O)C=CC3=O)CCC12 [U73122] (first compound 0.075 µM, partner dose 2 µM)",54.7,51.8,71.4,89.7
"Cn1cnc2c(F)c(Nc3ccc(Br)cc3Cl)c(C(=O)NOCCO)cc21 [selumetinib] + CCN(CC)CCCCNc1ncc2cc(-c3cc(OC)cc(OC)c3)c(NC(=O)NC(C)(C)C)nc2n1 [PD173074] (first compound 0.075 µM, partner dose 0.5 µM)",36.4,66,84.9,84.2
"COc1cc([C@@H]2c3cc4c(cc3[C@@H](O[C@@H]3O[C@@H]5CO[C@@H](C)O[C@H]5[C@H](O)[C@H]3O)[C@H]3COC(=O)[C@H]23)OCO4)cc(OC)c1O [etoposide] + Oc1nc(-c2ccc(C(F)(F)F)cc2)nc2c1CSCC2 [XAV939] (first compound 0.1 µM, partner dose 10 µM)",69.1,79.6,67.3,76
"C[C@]1(O)C[C@@H](c2nc(-c3ccc4ccc(-c5ccccc5)nc4c3)c3c(N)nccn32)C1 + COc1cc2ncnc(Nc3ccc(Oc4ccccc4)cc3)c2cc1OC [SrcI1] (first compound 2 µM, partner dose 10 µM)",77,38.8,98.4,99.9
"C[C@]1(O)C[C@@H](c2nc(-c3ccc4ccc(-c5ccccc5)nc4c3)c3c(N)nccn32)C1 + O=C(O)C(=O)Nc1sc2c(c1C(=O)O)CCNC2 [TCS401] (first compound 2 µM, partner dose 8.33333 µM)",61.3,115,96.3,113
"COc1cc([C@@H]2c3cc4c(cc3[C@@H](O[C@@H]3O[C@@H]5CO[C@@H](C)O[C@H]5[C@H](O)[C@H]3O)[C@H]3COC(=O)[C@H]23)OCO4)cc(OC)c1O [etoposide] + Oc1cc(-c2nc(-c3ccccc3)[nH]c2-c2ccncc2)ccc1Cl [L779450] (first compound 0.1 µM, partner dose 1 µM)",56.4,71.6,69.8,80.3
"Cn1cnc2c(F)c(Nc3ccc(Br)cc3Cl)c(C(=O)NOCCO)cc21 [selumetinib] + Cn1cc(/C=C2\C(=O)Nc3cccnc32)c2ccccc21 [GW441756] (first compound 0.075 µM, partner dose 2 µM)",39.3,58,94.3,78.7
"C[C@]1(O)C[C@@H](c2nc(-c3ccc4ccc(-c5ccccc5)nc4c3)c3c(N)nccn32)C1 + N#Cc1c(O)c2c(-c3ccc(-c4ccccc4O)cc3)csc2[nH]c1=O [A769662] (first compound 2 µM, partner dose 10 µM)",80.4,103,110,98.8
"C[C@]1(O)C[C@@H](c2nc(-c3ccc4ccc(-c5ccccc5)nc4c3)c3c(N)nccn32)C1 + CCc1ccc(CCOc2ccc(CC3SC(=O)NC3=O)cc2)nc1 [pioglitazone] (first compound 2 µM, partner dose 10 µM)",58.1,74.9,92,92.3
"Cn1cnc2c(F)c(Nc3ccc(Br)cc3Cl)c(C(=O)NOCCO)cc21 [selumetinib] + c1cc(-c2cnn3cc(-c4ccc(OCCN5CCCCC5)cc4)cnc23)ccn1 [Dorsomorphin] (first compound 0.075 µM, partner dose 2 µM)",47.3,76.9,90.8,110
"Cn1cnc2c(F)c(Nc3ccc(Br)cc3Cl)c(C(=O)NOCCO)cc21 [selumetinib] + O=C(O)C(=O)Nc1sc2c(c1C(=O)O)CCNC2 [TCS401] (first compound 0.075 µM, partner dose 8.33333 µM)",48.7,79,90.6,108
"CCN(CC)CCNC(=O)c1c(C)[nH]c(/C=C2\C(=O)Nc3ccc(F)cc32)c1C [sunitinib] + COc1cc2ncnc(Nc3ccc(Oc4ccccc4)cc3)c2cc1OC [SrcI1] (first compound 2 µM, partner dose 10 µM)",26.8,15.7,42.5,105
"CCN(CC)CCNC(=O)c1c(C)[nH]c(/C=C2\C(=O)Nc3ccc(F)cc32)c1C [sunitinib] + Oc1cc(-c2nc(-c3ccccc3)[nH]c2-c2ccncc2)ccc1Cl [L779450] (first compound 2 µM, partner dose 1 µM)",42.2,51.1,46.5,53
"COc1cc([C@@H]2c3cc4c(cc3[C@@H](O[C@@H]3O[C@@H]5CO[C@@H](C)O[C@H]5[C@H](O)[C@H]3O)[C@H]3COC(=O)[C@H]23)OCO4)cc(OC)c1O [etoposide] + N#Cc1c(O)c2c(-c3ccc(-c4ccccc4O)cc3)csc2[nH]c1=O [A769662] (first compound 0.1 µM, partner dose 10 µM)",72.6,107,81.1,83
